Data published in patent EP4663662A1 (Shanghai Qilu Pharmaceutical Research and Development …, dated 2025).
Where two headings read alike, the source gives them in different places.

T1: cynomolgus monkey GPRC5D (cynomolgus monkey, UniProt Q9NZD1 1-343 (human entry))
T1 construct: On transfected CHOK1 cells; also called cyno-GPRC5D; Cynomolgus monkey GPRC5D-CHOK1 cell line
T1 chain: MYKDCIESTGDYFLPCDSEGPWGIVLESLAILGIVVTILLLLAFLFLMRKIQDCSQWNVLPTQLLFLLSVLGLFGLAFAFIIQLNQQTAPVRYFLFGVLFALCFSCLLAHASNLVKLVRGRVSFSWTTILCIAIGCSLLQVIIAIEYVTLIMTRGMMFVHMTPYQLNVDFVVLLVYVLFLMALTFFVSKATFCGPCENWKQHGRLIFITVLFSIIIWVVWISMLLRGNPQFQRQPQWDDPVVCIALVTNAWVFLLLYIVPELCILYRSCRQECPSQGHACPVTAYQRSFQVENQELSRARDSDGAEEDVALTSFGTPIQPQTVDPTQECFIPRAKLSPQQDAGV


Assays:
[1] = target: T2, human GPRC5D (human, UniProt Q9NZD1 1-345); assay: flow cytometry, NCI-H929 cells
T2 construct: On transfected CHOK1 cells; also called Human GPRC5D-CHOK1 cell line; Human GPRC5D CHOK1

[2] = target: T2, human GPRC5D; assay: flow cytometry, human GPRC5D-CHOK1 cells
T2 sequence (Q9NZD1 whole entry): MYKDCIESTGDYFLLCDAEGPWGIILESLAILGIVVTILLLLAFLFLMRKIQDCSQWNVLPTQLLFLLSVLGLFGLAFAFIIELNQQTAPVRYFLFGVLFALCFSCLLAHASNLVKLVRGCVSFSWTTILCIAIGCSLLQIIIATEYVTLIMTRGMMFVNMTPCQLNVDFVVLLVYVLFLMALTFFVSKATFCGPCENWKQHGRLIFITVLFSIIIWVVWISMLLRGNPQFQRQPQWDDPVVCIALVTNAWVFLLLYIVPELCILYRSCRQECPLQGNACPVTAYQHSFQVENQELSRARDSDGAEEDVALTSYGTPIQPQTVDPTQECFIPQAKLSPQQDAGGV

[3] = target: T1, cynomolgus monkey GPRC5D; assay: flow cytometry, cynomolgus GPRC5D-CHOK1 cells
[4] = target: T1, cynomolgus monkey GPRC5D; assay: flow cytometry, cynomolgus GPRC5D-CHOK1 cells

EC50 [1] [nM]	EC50 [2] [nM]	EC50 [3] [nM]	EC50 [4] [nM]	Binder
2.53	0.79	0.98	9.22	HHC78 IgG1 (Fc fusion, Heavy chain antibody: VHH - GGGGS - human IgG1 constant region; also called llama-derived anti-GPRC5D chimeric antibody; parent antibody) QLQLVESGGGLVQPGGSLRLSCAGSGLFFASSDMSWFRQPPGKERELVAEITSVGNNIKYADSVEGRFTISRDNAKSTVYLQMNSLKPEDTAVYYCSARRRVRYWGQGTQVTVSSGGGGS[letters of human IgG1 Fc not shown]
1.18	–	–	8.68	HHC78-H4 IgG1 (Fc fusion, also called humanized llama-derived anti-GPRC5D antibody; GPRC5D VHH) QVQLVESGGGVVQPGGSLRLSCAASGLFFASSDMSWFRQAPGKGRELVAEITSVGNNIKYADSVEGRFTISRDNSKNTVYLQMNSLRAEDTAVYYCSARRRVRYWGQGTLVTVSSGGGGS[letters of human IgG1 Fc not shown]
